{
  "source": "the supplement of paper PMC10338343",
  "note": "± gives the standard deviation. Only a part is listed here, and it is no random draw.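 Also: 1 nM active piRISC with 0.1 nM target library at 33 °C single turnover.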",
  "data": [
    {"tested_on": "MIWI (PIWIL1) piRISC loaded with piRNA #1 (30 nt)", "assay": "pre-steady-state target cleavage rate (min^-1); MIWI and MILI are mouse PIWI proteins and EfPiwi is from a freshwater sponge; tags in brackets are library labels; higher = faster piRNA-guided slicing of the target", "settings": "guide: piRNA #1 5'p-UGAGGUAGUAGGUUGUAUAGUAUCCAGAGG; auxiliary factor: 500 nM mouse GTSF1", "procedure,_shortened": "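A burst-and-steady-state fit was used to obtain the pre-steady-state cleavage rate. The input data were sequencing reads of uncleaved targets, normalised to depth and to weakly complementary targets, from a […] transcribed, DNA-blocked target RNA library mixed with 1 nM active affinity-purified piRISC holding one synthetic guide, with or without 500 nM GTSF1 partner protein, in HEPES–potassium acetate buffer at 33 °C for 0–8 or 0–960 min. Three trials were pooled and k3 was capped at 0.0001 min^-1.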", "values": [
      {"sequence": "GGACUGGAUACUAUACAACCUACUACCUAA", "pre-steady-state target cleavage rate": "0.609 ± 0.058"},
      {"sequence": "GGAGACCUAUGUAUCCAACCUACUACCUCA", "pre-steady-state target cleavage rate": "0.0106 ± 0.0018"},
      {"sequence": "GGAGACCUAUGAAUACAACCUACUUGGUCA", "pre-steady-state target cleavage rate": "< 0.0001"},
      {"sequence": "GGAGAGGAUAAUAUACAACCUACUACCUCA", "pre-steady-state target cleavage rate": "1.05 ± 0.058"},
      {"sequence": "GGAGACGAUAGAUUACAACCUACUACCUCA", "pre-steady-state target cleavage rate": "0.0545 ± 0.014"},
      {"sequence": "GGAGACCUAUCUAUACAACCUACUUCCUCA", "pre-steady-state target cleavage rate": "0.199 ± 0.024"},
      {"sequence": "GGAGACCUUAGUAUUCAACCUACUACCUCA", "pre-steady-state target cleavage rate": "0.0304 ± 0.0054"},
      {"sequence": "GGAGACCUAACAAUACAAGCUACUACCUCA", "pre-steady-state target cleavage rate": "0.399 ± 0.12"},
      {"sequence": "CCUCUGGAUACUAUACAAGCUAGUACCUCA", "pre-steady-state target cleavage rate": "0.0933 ± 0.023"},
      {"sequence": "GGAGACCUAACUAUACAACCUACUUCGUCA", "pre-steady-state target cleavage rate": "0.0946 ± 0.033"},
      {"sequence": "GGACUGCAUACUAUACAACCUACAACCUCA", "pre-steady-state target cleavage rate": "0.222 ± 0.028"},
      {"sequence": "CCUCUGGAUACUAAACAACCUACUAGCUCA", "pre-steady-state target cleavage rate": "1.27 ± 0.1"},
      {"sequence": "GGAGACCUAUGAAUACAAUCCUACUACCUCA", "pre-steady-state target cleavage rate": "< 0.0001"},
      {"sequence": "GGAGAGGAUACUAUACAACCUACUUCCACA", "pre-steady-state target cleavage rate": "0.0106 ± 0.0048"},
      {"sequence": "GGAGACCUAACUAAACAUCCUACUACCUCA", "pre-steady-state target cleavage rate": "0.22 ± 0.08"},
      {"sequence": "CCACUGGAUACUAUACAUCCUACUACCUCA", "pre-steady-state target cleavage rate": "1.91 ± 0.11"},
      {"sequence": "GGAGACCUUACUAUACAACCUAGUACCUCA", "pre-steady-state target cleavage rate": "0.44 ± 0.036"},
      {"sequence": "CCUCUGGAUACUAUACAACCUACCACCUCA", "pre-steady-state target cleavage rate": "0.818 ± 0.071"},
      {"sequence": "GGAGUGGAAACUAUACAACCUACAACCUCA", "pre-steady-state target cleavage rate": "0.353 ± 0.05"},
      {"sequence": "GCUCUGGAUACUAUAAAACCUACUACCUCA", "pre-steady-state target cleavage rate": "1.6 ± 0.094"},
      {"sequence": "CGUCUGGAUACUAUACAACCUACUAGCUCA", "pre-steady-state target cleavage rate": "0.396 ± 0.06"},
      {"sequence": "CCUCUGGAUACAAUACAACCAACUACCUCA", "pre-steady-state target cleavage rate": "0.159 ± 0.021"},
      {"sequence": "GCUCUGGAUACUAUACAACCUAGCUACCUCA", "pre-steady-state target cleavage rate": "0.208 ± 0.022"},
      {"sequence": "GGAGACCAUACUUUACAACGUACUACCUCA", "pre-steady-state target cleavage rate": "0.375 ± 0.047"},
      {"sequence": "GGAGAGGUUACUAUACAACCUUCUACCUCA", "pre-steady-state target cleavage rate": "0.46 ± 0.025"},
      {"sequence": "GCUCUGGAUACUAUACAACCUACUACCCCA", "pre-steady-state target cleavage rate": "1.03 ± 0.073"},
      {"sequence": "GGAGACCAUACUAUUCAAGCUACUACCUCA", "pre-steady-state target cleavage rate": "0.656 ± 0.045"},
      {"sequence": "GGAGACCUUACUAUACAACUACUACCUCA", "pre-steady-state target cleavage rate": "0.0384 ± 0.0051"},
      {"sequence": "GGAGACCUAACUAUACUUCCUACUACCUCA", "pre-steady-state target cleavage rate": "0.00609 ± 0.004"},
      {"sequence": "GGAGACCUAUCUAUACAACGUACUACCUGA", "pre-steady-state target cleavage rate": "0.0384 ± 0.0093"},
      {"sequence": "CCUCUGGAUACUAUAGAAGCUACUACCUCA", "pre-steady-state target cleavage rate": "0.584 ± 0.039"},
      {"sequence": "GGAGAGGAUACUAUACAACCUACUACCUGA", "pre-steady-state target cleavage rate": "0.377 ± 0.04"},
      {"sequence": "GGAGACGAUACUAAACAACCUACUACCUCA", "pre-steady-state target cleavage rate": "1.57 ± 0.1"},
      {"sequence": "GCUCUGGAUACUAAACUACCUACUACCUCA", "pre-steady-state target cleavage rate": "1.08 ± 0.083"},
      {"sequence": "GGAGACCUAUGAUAUGUUCCUAACUACCUCA", "pre-steady-state target cleavage rate": "< 0.0001"},
      {"sequence": "GGAGUGGAUACAAUACUACCUACUACCUCA", "pre-steady-state target cleavage rate": "0.86 ± 0.066"},
      {"sequence": "GGUCUGGAUUCUAUACAACCUACUUCCUCA", "pre-steady-state target cleavage rate": "0.0648 ± 0.016"},
      {"sequence": "GGAGUGGAUACUAUACAACGUACUACCUGA", "pre-steady-state target cleavage rate": "0.0904 ± 0.019"},
      {"sequence": "GGAGACCUAUGUAUACAACCUACUACCCCA", "pre-steady-state target cleavage rate": "0.216 ± 0.029"},
      {"sequence": "GGAGAGGAUACUAUACAUCCUACAACCUCA", "pre-steady-state target cleavage rate": "0.536 ± 0.076"}
    ]}
  ]
}
